Screen size: about 280,000 compounds; about 100 (0.036%) were called active. Inconclusive means that the source gave no clear call. Such entries were picked first, then a sample of the others. Calls follow the shape of the dose curve; as a rule, active = well fitted inhibition curve with a large enough effect in the signal ratio, with a control signal flat (not every such curve was filed as active); inconclusive = small, poorly fitted or top-dose-only effect, or effect the other way, or a change in a side signal; inactive = no such curve, though single readings can be large or run the other way; the % refers to the signal ratio. Where the call is inconclusive, the potency comes from a doubtful curve fit. A note “side channel” means that the fit belongs to a control or component signal, not to the main read-out.
Each compound was assayed against Muscleblind-like protein 1 (Homo sapiens) (UniProt Q9NR56) (assay: qHTS Assay for Inhibitors of MBNL1-poly(CUG) RNA binding). Conditions: TR-FRET MBNL1-His/biotin-(CUG)12 binding, 665/545 ratio; activity change, negative = inhibition: at 57.5 µM (top of the series).
Sequence of UniProt Q9NR56 (Q9NR56 whole entry, looked up): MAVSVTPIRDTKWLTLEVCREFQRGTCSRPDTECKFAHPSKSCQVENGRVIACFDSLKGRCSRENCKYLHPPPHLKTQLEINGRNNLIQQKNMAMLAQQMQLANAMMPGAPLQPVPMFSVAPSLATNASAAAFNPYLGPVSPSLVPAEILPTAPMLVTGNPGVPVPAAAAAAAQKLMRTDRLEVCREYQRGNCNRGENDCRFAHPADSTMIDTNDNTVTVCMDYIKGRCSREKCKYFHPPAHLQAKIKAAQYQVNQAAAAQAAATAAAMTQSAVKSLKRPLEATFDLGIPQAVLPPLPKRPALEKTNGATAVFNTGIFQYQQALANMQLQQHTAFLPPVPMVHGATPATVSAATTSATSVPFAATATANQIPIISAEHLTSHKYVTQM
In short: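 TR-FRET readout: Ex 340 nm, 665/545 nm emission ratio, normalized to buffer-only (basal) and MBNL1-(CUG)12 controls. Complex of MBNL1-His with Biotin-(CUG)12, compounds 92 nM–58 uM, incubated 60 min at room temperature.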
% is scaled to controls: 0 for no effect and ±100 for the full control effect; potency is read from the fitted curve at half-maximal effect; tags tell the direction and shape of the fitted curve or compound fluorescence and quenching.

Compound | Potency | activity change, negative = inhibition
NC(=S)N/N=C/c1cc([N+](=O)[O-])ccc1Cl | inconclusive: 3.16 µM [quencher, side channel, full curve] | 
O=C(Nc1cccc(NC(=O)c2ccc([N+](=O)[O-])o2)c1)c1ccco1 | inconclusive: 14.1 µM [quencher, side channel, partial curve] | 
Cc1cc([N+](=O)[O-])ccc1NC(=O)CSc1nncn1-c1ccccn1 | inconclusive: 25.1 µM [quencher, side channel, partial curve] | 
CCCC(=O)Nc1ccc(-c2csc(N/N=C\c3ccncc3)n2)cc1 | inconclusive: 15.8 µM [quencher, side channel, partial curve] | 
Cc1ccc(N/C(=N/S(=O)(=O)c2cccs2)c2ccccc2)c(C)c1 | inactive | 
O=C(O)c1cc([N+](=O)[O-])cc([N+](=O)[O-])c1N1CCN(c2cccc(C(F)(F)F)c2)CC1 | inconclusive: 25.1 µM [quencher, side channel, partial curve] | 
COc1ccc(/C=N/NC(=O)c2ccc3nc[nH]c3c2)c(OC)c1OC | inconclusive: 28.2 µM [quencher, side channel, partial curve] | 
Cc1occc1C(=O)N=Nc1c(O)n(C)c2ccccc12 | inconclusive: 0.708 µM [quencher, side channel, full curve] | 
Cc1nn2c(-c3ccc(S(=O)(=O)N4CCN(CCO)CC4)o3)nnc2c2ccccc12 | inactive | 
CCn1c(O)c(/C=N/N=C2CCCCC2)c2cc(C3=NNC(=O)CC3)ccc21 | inconclusive: 14.1 µM [quencher, partial curve] | 
Cc1cccn2c(=O)c3cc(C(=O)NCCN4CCOCC4)c(=N)n(CCN4CCOCC4)c3nc12 | inconclusive: 10 µM [quencher, side channel, partial curve] | 
O=c1[nH]c2cccnc2n1-c1ccc([N+](=O)[O-])cc1 | inconclusive: 4.47 µM [quencher, side channel, partial curve, poor fit] | 
CCCC[C@]12Cc3cc(OC)c(OC)cc3C(O1)C1=C(O2)C(=O)c2ccccc2C1=O |  | inactive: 22.6% [at 11.5 µM]
NS(=O)(=O)c1ccc(NC(=O)COC(=O)c2ccc([N+](=O)[O-])s2)cc1 | inconclusive: 6.31 µM [quencher, side channel, partial curve] | 
Cc1ccc(/C=N/NC(=O)c2csc(C)c2)o1 | inconclusive: 17.8 µM [quencher, side channel, partial curve] | 
Cc1ccccc1CNS(=O)(=O)c1ccccc1[N+](=O)[O-] | inconclusive: 28.2 µM [quencher, side channel, single point] | 
COc1cccc(Nc2ccc(Nc3cccc(OC)c3)nn2)c1 | inconclusive: 2.82 µM [quencher, side channel, full curve] | 
Cc1cccn2c(=O)c3cc(C(=O)NCc4cccnc4)c(=N)n(C(C)C)c3nc12 | inconclusive: 11.2 µM [quencher, side channel, partial curve] | 
COc1ccc(-c2nc(Cn3c(SCc4cccc(F)c4)nc4ccncc43)c(C)o2)cc1OC | inactive | 

Compound | Potency | activity change, negative = inhibition
COCCNC(=O)C(OC(=O)C1=Cc2ccccc2OC1)C(C)C (stereo not drawn) | inconclusive: 17.8 µM [quencher, side channel, partial curve] | 
CCNc1ccc(S(=O)(=O)N(C)C)cc1[N+](=O)[O-] | inconclusive: 28.2 µM [quencher, side channel, partial curve] | 
CCC(C)(C)n1nnnc1C(c1ccccc1)N1CCN(C2CCCC2)CC1 (stereo not drawn) | inconclusive: 0.794 µM [quencher, side channel, single point] | 
COC(=O)CCC(=O)NC(=S)Nc1ccc(S(=O)(=O)Nc2cc(OC)nc(OC)n2)cc1 |  | inactive: -9.13% [at 11.5 µM]
CC(NC(=O)C1CCN(S(=O)(=O)c2ccccc2)CC1)c1ccccc1 (stereo not drawn) | inactive | 
COc1cc(N2CCCC2)c(OC)cc1/C=C(/C#N)c1ccc(Br)cc1 | inactive | 
O=C(c1ccc([N+](=O)[O-])cc1)N1CCCC1 | inconclusive: 17.8 µM [quencher, side channel, partial curve] | 
Cn1nc(-c2ccccn2)nc2c(=O)n(C)c(=O)nc1-2 | inconclusive: 4.47 µM [quencher, side channel, partial curve] | 
O=C(N/N=C/c1ccc(O)c(O)c1O)/C(=C/c1ccc([N+](=O)[O-])cc1)NC(=O)c1ccccc1 | inconclusive: 14.1 µM [quencher, side channel, partial curve] | 
COc1ccc(OC)c(C2CC(=O)N3CN(c4cccc(Cl)c4C)CSC3=C2C#N)c1 (stereo not drawn) | inactive | 
CN(Cc1cnc2nc(N)nc(N)c2n1)c1ccc(C(=O)N[C@@H](CCC(=O)O)C(=O)O)cc1 | inconclusive: 11.2 µM [quencher, side channel, partial curve] | 
Cc1ccc(C2=NS(=O)(=O)N(C)C(C(=O)NC(C)c3ccccc3)=C2)cc1 (stereo not drawn) | inconclusive: 44.7 µM [quencher, side channel, single point] | 
COc1cccc(C(=O)NCC(=O)N2CCC3(CC2)NCCc2[nH]cnc23)c1 | inactive | 
CC(C)(C)S(=O)(=O)/C(C#N)=N/Nc1ccc(S(C)(=O)=O)cc1 | inactive | 
CC1CCCN(c2cc(N(C)CCO)c([N+](=O)[O-])c3nonc23)C1 (stereo not drawn) | inconclusive: 8.91 µM [quencher, side channel, partial curve] | 
CCOC(=O)c1oc2nc3c(cc2c1N)COC(C)(C)C3 | inconclusive: 15.8 µM [quencher, side channel, partial curve] | 
COc1ccc(NC(=S)Nc2cc(-c3ccccc3)[nH]n2)cc1Cl | inactive | 
N#Cc1c(N)sc(=S)c2c1CCCCC2 | inconclusive: 15.8 µM [quencher, side channel, partial curve] | 
COC(=O)c1c(NC(=O)c2ccco2)sc2c1CCC2 | inconclusive: 39.8 µM [fluorescent, single point] | 

Source: PubChem BioAssay AID2675 (National Center for Advancing Translational Sciences (NCATS), 2010)
